Data reported in PubChem BioAssay AID1345082 (National Center for Advancing Translational Sciences (NCATS), 2018).
Hit rate of the full screen: of about 94,000 compounds, about 4,000 (4.3%) were called active. The shares of active, inactive and inconclusive entries below differ from those in the screen. The call rests on the fitted dose curve; in most records, active means well fitted inhibition curve with a large enough effect; inconclusive means small, poorly fitted or top-dose-only effect; inactive means no such curve, though single readings can be large or run the other way. A potency beside an inconclusive call is a rough fit, not a confirmed value.
On the % scale 0 is the no-effect control and ±100 the full control effect; potency means the concentration at half of the fitted maximal effect; tags describe the fitted curve by direction and shape.

Test: Cytotoxic Profiling in NIH 3T3 Cell Line of Diverse Libraries Using Quantitative High-Throughput Screening; further: nearly all actives have a fitted effect of over 55% in size
Conditions: NIH 3T3 viability, CellTiter-Glo ATP luminescence, 48-72 h; activity change, negative = cytotoxicity: at 96.7 µM (top of the series) unless noted; series mostly up to 96.7 µM
Procedure, shortened: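 Cytotoxicity is measured as loss of cellular ATP: NIH 3T3 cells (400/well) are exposed to compound for 48 or 72 hr at 37 °C, then CellTiter-Glo luminescence is imaged after 10 min at room temperature.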
In the case of Cn1c(=O)oc2ccc(C(=O)N[C@H](C3CCNCC3)C3CC(O)C3)cc21 (some centres undefined), the “activity change, negative = cytotoxicity” value was inactive: 1.69%. In the case of O=C(CCCc1ccccc1)Nc1ccc(OC2CCNCC2)nc1, the Potency was inconclusive: 44.7 µM [inhibitor, partial curve, poor fit]. For CN1CCCC2(C1)CN(Cc1cccnc1)c1ccc(C(=O)Nc3ccc(F)cc3)cc12 (centres undefined), the Potency was inconclusive: 56.2 µM [inhibitor, partial curve, poor fit]. In the case of Cc1cnc(CC2CCN(S(=O)(=O)c3ccccc3)CC2)n1Cc1ccc(F)cc1, the Potency was inconclusive: 50.1 µM [inhibitor, partial curve, poor fit]. With COc1cccc(Nc2cnc3ccc(-c4cccc(CO)c4)nn23)c1 the Potency was inconclusive: 89.1 µM [inhibitor, partial curve, poor fit]. In the case of O=C(c1cccs1)N1CC(Oc2cccc(-c3nc(-c4ccccc4)no3)c2)C1, the Potency was inconclusive: 28.2 µM [inhibitor, partial curve, poor fit]. For Cc1ccc(CN2CCc3nc(C4CC4)nc(-c4ccc(O)cc4)c3C2)cc1, the Potency was inconclusive: 50.1 µM [inhibitor, partial curve, poor fit]. For O=C(O)CCC(=O)N1C[C@@H]2OCC(=O)N(c3ccccc3)[C@@H]2C1, the “activity change, negative = cytotoxicity” value was inactive: -1.18% [at 174 µM]. In the case of COc1cc(=O)n2c(c1C(=O)Nc1cc(C(F)(F)F)ccc1Cl)CCCC2, the “activity change, negative = cytotoxicity” value was inactive: -18.8%. With CCCCNC(=O)c1c(OCC(C)C)cc(=O)n2c1CCCCC2 the Potency was inconclusive: 70.8 µM [inhibitor, single point]. In the case of COC(=O)CNC(=O)C1CN(S(=O)(=O)c2cccs2)CC12CCCCC2 (centres undefined), the “activity change, negative = cytotoxicity” value was inactive: -0.307%. With Cc1ccc(S(=O)(=O)Cc2noc([C@@H]3C[C@@H](O)CN3Cc3ccc(C(F)(F)F)cc3)n2)cc1 the Potency was inconclusive: 79.4 µM [inhibitor, partial curve, poor fit]. In the case of Cn1ccc(C(=O)N2CCC3(CC2)OC(=O)N(Cc2ccccc2)C3(C)c2ccccc2)n1 (centres undefined), the Potency was active: 35.5 µM. For O=C(CN1C(=O)C2(CCCCC2)C1c1ccccc1)N1CCOCC1 (centres undefined), the Potency was inconclusive: 50.1 µM [inhibitor, partial curve, poor fit]. In the case of COc1ccc(-c2ccnc(N[C@H]3CO[C@H]4[C@@H]3OC[C@@H]4NS(=O)(=O)c3ccc(NC(C)=O)cc3)n2)cc1, the Potency was inconclusive: 35.5 µM [inhibitor, full curve]. In the case of Cc1nn(-c2ccccc2)c2c1C(C)N(CC1CN(C(=O)c3ccccc3)C1)C2=O (centres undefined), the Potency was inconclusive: 50.1 µM [inhibitor, partial curve, poor fit]. In the case of COc1ccccc1C(=O)Nc1ccc2ncnc(N3CCCCC3)c2c1, the Potency was inconclusive: 44.7 µM [inhibitor, partial curve, poor fit]. In the case of COc1ccc(F)cc1-c1ccc(CN2CCC(NC(=O)c3ccncc3)C2)cc1 (centres undefined), the Potency was inconclusive: 39.8 µM [inhibitor, partial curve, poor fit]. With CCc1csc(CNc2cc(C3CC(O)C3)nc(N)n2)n1 (centres undefined) the Potency was inconclusive: 28.2 µM [inhibitor, full curve, poor fit]. For CCCCNC(=O)c1cccc2c1CCN2S(=O)(=O)c1ccc(C)cc1, the Potency was inconclusive: 15.8 µM [inhibitor, full curve]. With Cc1cc(C(=O)Nc2ccc([C@H]3OCC(=O)N(CC(=O)N(C)C)[C@@H]3CO)cc2)nn1C the “outcome” value was “inactive [at 174 µM]”. With Cc1nc(-c2cccc(Cl)c2)n(CC(=O)NC(C)C)c(=O)c1CCO the “activity change, negative = cytotoxicity” value was inactive: -8.95%. In the case of COc1ccccc1CN1Cc2cc(NS(=O)(=O)c3ccc(C)c(F)c3)ccc2OC(C)C1=O (centres undefined), the Potency was inconclusive: 20 µM [inhibitor, full curve]. In the case of COc1cccc(C(=O)NC2CCN(c3cc(-c4cccs4)[nH]n3)CC2)c1, the Potency was inconclusive: 50.1 µM [inhibitor, partial curve, poor fit]. For O=C(NCc1cccc(Cl)c1)c1ccc2nc(-c3ccccn3)oc2c1, the Potency was inconclusive: 50.1 µM [inhibitor, partial curve, poor fit]. In the case of CCOc1ccc(CC(=O)N2CCCN(C)c3ccccc32)cc1, the Potency was inconclusive: 35.5 µM [inhibitor, partial curve, poor fit]. With Cc1cccc(NC(=O)Nc2ccc(C)n(CC(=O)NCCN3CCCCC3)c2=O)c1 the Potency was inconclusive: 70.8 µM [inhibitor, single point]. For COCCNC(=O)c1nc(-c2ccc(F)cc2)c2ccccn12, the Potency was inconclusive: 79.4 µM [inhibitor, partial curve]. In the case of CC(c1ccc(F)cc1)N1Cc2cc(NC(=O)COc3ccccc3)ccc2OCC1=O (centres undefined), the Potency was inconclusive: 44.7 µM [inhibitor, partial curve, poor fit]. For CN(C)c1cc(N2CCCC(NC(=O)Cc3cccs3)C2)ncn1 (centres undefined), the Potency was inconclusive: 39.8 µM [inhibitor, partial curve, poor fit]. With Cc1ccc(NC(=O)Cn2cccc2-c2nc(-c3ccc(F)cc3)no2)c(C)c1 the “activity change, negative = cytotoxicity” value was inactive: 1.41%. In the case of O=C(C1CCCN1C(=O)c1ccc(F)cc1)N1CCC(c2ccccc2)CC1 (centres undefined), the “activity change, negative = cytotoxicity” value was inactive: -23.3%. In the case of O=C(c1ccc(Cl)nc1)N1CCN(c2ccnc3ccnn23)CC1, the “activity change, negative = cytotoxicity” value was inactive: -1.01%. For COc1ccc(C2Cn3nnc(-c4noc(-c5ccccc5C)n4)c3CO2)cc1 (centres undefined), the “activity change, negative = cytotoxicity” value was inactive: -8.03%. In the case of COc1cccc(C(=O)N2CCCC(n3cc(-c4nc(-c5ccccc5)no4)nn3)C2)c1 (centres undefined), the Potency was inconclusive: 39.8 µM [inhibitor, partial curve, poor fit]. With CC(C)(C)CC(=O)N1CCC(C(NC(=O)c2ccccc2Cl)C(=O)N2CCCCC2)CC1 (centres undefined) the Potency was inconclusive: 56.2 µM [inhibitor, partial curve, poor fit]. With c1ccc(-c2cnc3n2C[C@H](CNCc2nccs2)OC3)cc1 the Potency was inconclusive: 100 µM [inhibitor, single point]. In the case of C#CCNC(=O)c1nc(-c2cc(Cl)cc(Cl)c2)c2ccccn12, the “activity change, negative = cytotoxicity” value was inactive: -5.7% [at 138 µM]. For CN(C)CC1(O)CCCN(Cc2ccc(-c3ccc(Cl)cc3)o2)C1 (centres undefined), the Potency was inconclusive: 50.1 µM [inhibitor, partial curve, poor fit]. With COc1ccc(-c2cn3c(n2)CO[C@@H](CNCc2ccccc2OC)C3)cc1 the Potency was inconclusive: 100 µM [inhibitor, partial curve, poor fit]. With NC(=O)N1CCCC(C(=O)N2CCN(c3nsc4ccccc34)CC2)C1 (centres undefined) the Potency was inconclusive: 56.2 µM [inhibitor, partial curve, poor fit]. In the case of N#Cc1ccc(-c2nc(C3CC(=O)N(c4ccc(Cl)cc4)C3)no2)cc1 (centres undefined), the Potency was inconclusive: 44.7 µM [inhibitor, partial curve, poor fit]. With COCC(=O)N1CCCC(C(=O)N2CCC(N3CCCC3=O)CC2)C1 (centres undefined) the “outcome” value was “inactive”. In the case of Cc1cnc(C(=O)N2C[C@@H](COc3ccccc3)[C@H](C(N)=O)C2)cn1, the “activity change, negative = cytotoxicity” value was inactive: -0.564%. With CC1=C[C@@H](CNS(=O)(=O)c2cccs2)[C@H](C(C)C)C[C@H]1CC(=O)NCCN1CCOCC1 the Potency was active: 25.1 µM. For Cc1cc(C)n(CC(=O)N2CC(F)(F)C[C@H]2c2nc(C)no2)n1, the “outcome” value was “inactive”. For CNC(=O)c1cc(C2CC2)nc2onc(C3CCCN3C(=O)c3cccc(Cl)c3)c12 (centres undefined), the Potency was inconclusive: 44.7 µM [inhibitor, partial curve]. In the case of O=C1NC(=NC2CCCC2)C2(CCCN(Cc3ccccc3)C2)N1c1cccnc1 (centres undefined), the Potency was active: 25.1 µM. For CN1C(=O)c2cccn2CC1CNC(=O)c1cc2ccccc2[nH]1 (centres undefined), the “activity change, negative = cytotoxicity” value was inactive: -7.11%. In the case of O=C(NCCc1ccccc1)N1CCCC(c2noc(COc3ccccc3)n2)C1 (centres undefined), the Potency was inconclusive: 50.1 µM [inhibitor, single point]. In the case of Cc1ccccc1CN1CCOc2cc([S+](=O)([O-])N(C)C)ccc2C1, the Potency was inconclusive: 56.2 µM [inhibitor, partial curve, poor fit]. In the case of CC1=NS(=O)(=O)N(C)C=C1C(=O)OCc1nc(-c2cccc(C)c2)no1, the Potency was inconclusive: 50.1 µM [inhibitor, partial curve, poor fit]. With O=c1c2c(n(Cc3ccccc3)n1-c1ccccc1)CN(Cc1ccc3c(c1)CCO3)CC2 the Potency was inconclusive: 50.1 µM [inhibitor, partial curve, poor fit]. For Cc1ccc(C)c(NC(=O)Cn2ccn3nc(-c4ccc(F)cc4)c(CO)c3c2=O)c1, the “outcome” value was “inactive”. For CCOc1cc(=O)n2c(c1C(=O)Nc1ccc(Cl)cc1Cl)CCCC2, the Potency was inconclusive: 44.7 µM [inhibitor, partial curve, poor fit]. In the case of O=C(C[C@@H]1C[C@H]2O[C@H](CNCc3ccccc3OC(F)(F)F)[C@@H](O)[C@H]2O1)N1CCC(F)(F)C1, the “activity change, negative = cytotoxicity” value was inactive: 1.73%. For CCCCCNC(=O)c1nc2cccnc2n(Cc2ccc(OC)cc2)c1=O, the Potency was inconclusive: 79.4 µM [inhibitor, partial curve, poor fit]. For Cc1cccnc1CN1C[C@@H](F)[C@@H](OCc2nc3ccc(F)cc3[nH]2)C1, the Potency was inconclusive: 89.1 µM [inhibitor, partial curve, poor fit]. For COc1ccc(Nc2ccnc(N3CCC(NC(=O)Cc4cccc(Cl)c4)CC3)n2)cc1, the Potency was active: 20 µM. With CSCC(=O)N[C@H]1CCN2C(=O)c3cc(-c4ccc(SC)cc4)ccc3NC(=O)[C@H]12 the “activity change, negative = cytotoxicity” value was inactive: -16.6%. In the case of O=C(NCc1cc(-c2ccccc2Cl)no1)C1CC2(CCNCC2)CN1 (centres undefined), the “outcome” value was “inactive”. With COc1ccc(CNC(=O)N2CCC3(CC2)CC(Cc2nc(C4CC4)no2)CCO3)cc1 (centres undefined) the Potency was inconclusive: 50.1 µM [inhibitor, partial curve, poor fit]. With CSCC(=O)N[C@H]1CCN2C(=O)c3cc(/C=C/c4ccccc4)ccc3NC(=O)[C@H]12 the “activity change, negative = cytotoxicity” value was inactive: -25.7% [at 174 µM]. For COc1cc(SC)ccc1C(=O)N[C@H]1CCN2C(=O)N(c3ccc(F)c(Cl)c3)C(=O)[C@@H]2C1, the Potency was inconclusive: 44.7 µM [inhibitor, partial curve, poor fit].
